From PubChem BioAssay AID485313 (National Center for Advancing Translational Sciences (NCATS), 2010)
Values joined by “and” are separate entries in the source; they are usually repeats but may differ in a detail not shown here. Equal entries are not always repeated. The campaign covered roughly 320,000 compounds. About 7,600 (2.4%) were called active. Inconclusive means that the source gave no clear call. Such entries were picked first, then a sample of the others. Calls come from the whole dose curve; as a rule, active = well fitted activation curve with a large enough effect; inconclusive = small, poorly fitted or top-dose-only effect; inactive = no such curve, though single readings can be large or run the other way. A potency beside an inconclusive call is a rough fit, not a confirmed value.

test: qHTS Assay for NPC1 Promoter Activators; settings: Huh7 NPC1 promoter luciferase reporter, 24 h; series mostly up to 9.22 µM; activation: at the top concentration; note: nearly all actives have a fitted effect of over 60% in size; for activation: % of control where 0% means no effect
In short: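 Luminescence read-out of NPC1 promoter-driven luciferase in stably transfected Huh7 cells; compounds delivered in DMSO and left 24 h at 37C, 5% CO2, qHTS titration format.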
Potency is the fitted concentration of half-maximal effect; tags give direction and shape of the fitted curve.

activation, inactive:
Cc1cccn2c(=O)c(C=O)c(N3CCC4(CC3)OCCO4)nc12 -1.07%
Cn1c(C(=O)N2CCCC(C(=O)NCc3ccc4c(c3)OCO4)C2)cc2sccc21 (centres undefined) -0.7%
CC(=O)Nc1ccc(S(=O)(=O)n2cnc(C)c2)cc1 0.435%
O=C(N/N=C/c1ccc(O)cc1O)c1ccncc1 -31.8%
O=C(Cc1ccccc1)Nc1ccnn1C1CCN(Cc2nccs2)CC1 -6.61%
COCc1nc2sc3c(c2c(=O)[nH]1)CCCC3 -1.52%
COCc1cc(=O)n2[nH]c(-c3ccco3)cc2n1 -6.19%
CCN1C(=O)/C(=C2\C=Cc3cc(C)ccc3N2CC)OC1=S 0.557%
COC(=O)C1CCN(c2ccc([N+](=O)[O-])cc2[N+](=O)[O-])CC1 -3.99%
CC(=O)c1cccc(NC(=O)C(C)OC(=O)CCn2c(C)csc2=O)c1 (centres undefined) 0.552%
Cc1ccc(C)c(NC(=O)c2ccccc2O)c1 4.03%
COc1ccc(NC(=O)Cc2ccc(Cl)cc2)cc1S(=O)(=O)N1CCCCC1 0.301%
CC(=O)Nc1ccc(-c2csc(Nc3ccc(Cl)cn3)n2)cc1 -3.43%
O=C(/C=C/c1ccco1)Nc1ccccc1N1CCCC1 11.5%
C(=Nc1ccc(Nc2ccccc2)cc1)c1ccc2ccccc2c1 -11.8%
CS(=O)(=O)NN1C(=O)c2ccccc2NC1c1cc2ccccc2nc1Cl (centres undefined) 1.25%
CCOC(=O)C1CCCN(c2nc3ccccc3nc2C(C#N)C(=O)OCC)C1 (centres undefined) -2.34%
COc1ccc(CN2CCN(Cc3nc4ccccc4s3)CC2CCO)c(C)c1C (centres undefined) -5.33%
O=C(N/N=C/c1ccccn1)c1cccc(NC(=O)c2ccccc2Cl)c1 2.82%

Potency, active:
Oc1ccc(-c2cn3cc(C(F)(F)F)ccc3n2)cc1 0.794 µM
CC(C)Oc1ccc2c(=O)c(-c3ccccc3)coc2c1 501 nM and 794 nM
CC(=O)Nc1cccc(-c2csc(Nc3cccc(C)n3)n2)c1 0.708 µM
CC(=O)Nc1ccc(/C=N/Nc2nc3ccccc3s2)cc1 0.708 µM
Cc1ccc(OC(=O)c2cccc([N+](=O)[O-])c2)c(-n2nc3ccccc3n2)c1 3.55 µM
Clc1ccc2oc(-c3ccccn3)nc2c1 2.51 µM
OCCOCCNc1ncnc2c1cnn2-c1ccc(Cl)cc1 1.12 µM
CCC(=O)Nc1cc(NC(=O)CSc2ncc(-c3ccc(F)cc3)n2Cc2ccco2)ccc1C 2.82 µM
O=C(Nc1ccc2ccccc2c1)c1cc(F)c(F)cc1Cl 2 µM
Cc1cccc(/C(N)=N/OC(=O)c2cccc3ccccc23)c1 3.55 µM
Cc1ccc(C(=O)NC(=S)NCC2CCCO2)cc1 (centres undefined) 2.82 µM
COc1ccc(OC)c2c(N3CC(C)OC(C)C3)cc(C(F)(F)F)nc12 (centres undefined) 2.82 µM
O=C(COC(=O)c1ccc(Cl)nc1)c1ccc2c(c1)OCCO2 3.98 µM
Cc1ccc2nc(C3CCCCC3)[nH]c2c1 1.78 µM
O=C(Nc1ccc(Br)cc1Cl)c1ccc2c(=O)n3c(nc2c1)CCC3 3.55 µM
Cc1ccc(N=c2c([N+](=O)[O-])nn(-c3ccc(Cl)cc3)n2O)cc1C 1.58 µM
C=CCNC(=O)c1cc2c(=O)n3ccccc3nc2s1 2.51 µM
CC(C)(C)C(=O)Nc1ccc(/C=C/C(=O)c2ccco2)cc1 0.355 µM

Potency, inconclusive:
Cc1nnc2c3cnn(-c4ccc(Cl)cc4)c3ncn12 2.82 µM [activator, partial curve]
O=C(COC(=O)c1ccc(N2CCCC2=O)cc1)c1ccccc1 3.55 µM [activator, partial curve]
S=C(Nc1ccccc1)c1nc2ccccc2s1 3.55 µM [activator, single point]
O=Cc1cccc(OC(=O)/C=C/c2ccco2)c1 3.16 µM [activator, partial curve]
COc1ccc(NC(=O)COc2ccccc2)c(OC)c1 3.55 µM [activator, single point]
c1ccc2oc(NC3=NCN(CC4CCCO4)CN3)nc2c1 (centres undefined) 3.16 µM [activator, partial curve]
CC(=O)c1sc(NC(=O)c2ccco2)nc1-c1ccccc1 3.55 µM [activator, single point]
O=C(Nc1nnc(C(F)(F)F)s1)c1cccnc1 2.82 µM [activator, partial curve]
COc1cccc(NC(=O)c2sc3nc4n(c(=O)c3c2C)CCC4)c1 3.55 µM [activator, partial curve]
COC(=O)c1ccc(NC(=O)c2ccc(OC(C)=O)c(OC)c2)cc1 5.62 µM [activator, single point]
CCc1nnc(NC(=O)CSc2nc(C)c3c(c2C#N)CCCC3)s1 3.55 µM [activator, partial curve]
COc1ccc(C(=O)C[n+]2ccc3ccccc3c2C)cc1 2.82 µM [activator, partial curve]
CCCCCn1cnc2sc(CC)cc2c1=O 6.31 µM [activator, single point]
O=C(/C=C/c1ccccc1)NC(=S)Nc1ccccc1O 3.55 µM [activator, single point]
O=C(Nc1ccc(Cl)cn1)c1ccc(Br)c(S(=O)(=O)N2CCCCC2)c1 1 µM [activator, single point]
C/C(=N\NC(=O)c1ccc(F)cc1)c1ccccn1 0.447 µM [activator, partial curve]
Cc1ccc(S(=O)(=O)N2CCN(S(=O)(=O)c3cccs3)CC2)cc1 3.16 µM [activator, partial curve]
O=C(OCc1ccc(-c2ccccc2)cc1)c1cccc(O)c1 6.31 µM [activator, partial curve]
Cc1nc(NC(=O)c2ccccc2)nc2cc3c(cc12)OCO3 3.98 µM [activator, partial curve]
COc1ccc(C(c2nnnn2C(C)(C)C)N2CCN(C(=O)c3ccco3)CC2)cc1 (centres undefined) 5.62 µM [activator, single point]
COc1ccc(NC(=O)Nc2cccs2)cc1Cl 3.55 µM [activator, partial curve]
Cc1cc(C(=O)CN2CCC(C)CC2)c(C)n1-c1ccc(F)cc1 2.24 µM [activator, partial curve]
O=C(Nc1nccs1)c1cccc(S(=O)(=O)N2CCCC2)c1 0.708 µM [activator, partial curve]
Cc1nc(-c2ccc(C(F)(F)F)cc2)sc1C(=O)NN 3.55 µM [activator, partial curve]
Cc1ccc(CNC(=O)CSc2ccsc2[N+](=O)[O-])cc1 3.16 µM [activator, partial curve]
O=C(Nc1cccc([N+](=O)[O-])c1)c1ccc2ccccc2c1O 1.41 µM [activator, partial curve]
Cn1/c(=N\NC(=O)c2ccccc2Cl)sc2ccccc21 3.55 µM [activator, partial curve]
O=C(Nc1ccccc1)Nc1ccc(Br)c(Cl)c1 3.98 µM [activator, partial curve]
N#CCSc1nc2[nH]ncc2c(=O)n1-c1ccccc1Br 0.0891 µM [activator, full curve, poor fit]
O=C(Nc1cccnc1Cl)c1cc(-c2ccccc2O)on1 3.98 µM [activator, single point]
O=C(N=C1SCC(=O)N1c1ccccc1)c1ccco1 3.16 µM [activator, single point]
CCCc1nn(C)c(C(=O)Nc2cccc(CC)c2)c1Cl 3.16 µM [activator, single point]
Nc1nc(NC(=O)c2ccco2)nn1-c1ccccc1 2.82 µM [activator, single point]
CCOC(=O)N/N=C/C(Cl)=C/c1ccccc1 3.16 µM [activator, partial curve]
COc1ccc(-n2nc([N+](=O)[O-])c(=NCCC3=CCCCC3)n2O)cc1 5.62 µM [activator, single point]
Cc1cc(NC(=O)c2ccccc2)no1 3.55 µM [activator, partial curve]
Nc1nc(-c2cccs2)cs1 3.16 µM [activator, partial curve]
COc1ccc(-c2[nH]ncc2CN2CCN(Cc3cccs3)CC2)cc1F 1.26 µM [activator, single point]
O=C(COc1ccc(Cl)cc1Cl)NC1CCSC1=O (centres undefined) 2.51 µM [activator, partial curve]
O=C(NCCc1ccc(Cl)cc1)c1cccc(N2CCCC2=O)c1 3.55 µM [activator, single point]
COCCCn1c(C)cc(C(=O)COC(=O)C23CC4CC(CC(O)(C4)C2)C3)c1C 0.501 µM [activator, full curve]
COc1ccc(NC(=O)CCC(=O)Nc2ccc3nc(N4CCOCC4)cc(C)c3c2)c(OC)c1 2.82 µM [activator, partial curve]
